In PubChem BioAssay AID1460 (National Center for Advancing Translational Sciences (NCATS), 2008):
The campaign covered roughly 270,000 compounds. About 5,800 (2.1%) were called active. The shares of active, inactive and inconclusive entries below differ from those in the screen. Calls follow the shape of the dose curve; as a rule, active = well fitted inhibition curve with a large enough effect; inconclusive = small, poorly fitted or top-dose-only effect; inactive = flat fitted curve, though single readings scatter. Where the call is inconclusive, the potency comes from a doubtful curve fit.

biological target: Microtubule-associated protein tau (Homo sapiens) (UniProt P10636); assay: qHTS for Inhibitors of Tau Fibril Formation, Thioflavin T Binding; conditions: recombinant tau K18 P301L (four-repeat tau fragment), heparin-induced fibrillization, ThT fluorescence; series mostly up to 57.4 µM; activity, negative = inhibition: at the top concentration; also: nearly all actives have a fitted effect of over 55% in size
UniProt P10636, sequence (P10636 whole entry, looked up, the tested form may be a part): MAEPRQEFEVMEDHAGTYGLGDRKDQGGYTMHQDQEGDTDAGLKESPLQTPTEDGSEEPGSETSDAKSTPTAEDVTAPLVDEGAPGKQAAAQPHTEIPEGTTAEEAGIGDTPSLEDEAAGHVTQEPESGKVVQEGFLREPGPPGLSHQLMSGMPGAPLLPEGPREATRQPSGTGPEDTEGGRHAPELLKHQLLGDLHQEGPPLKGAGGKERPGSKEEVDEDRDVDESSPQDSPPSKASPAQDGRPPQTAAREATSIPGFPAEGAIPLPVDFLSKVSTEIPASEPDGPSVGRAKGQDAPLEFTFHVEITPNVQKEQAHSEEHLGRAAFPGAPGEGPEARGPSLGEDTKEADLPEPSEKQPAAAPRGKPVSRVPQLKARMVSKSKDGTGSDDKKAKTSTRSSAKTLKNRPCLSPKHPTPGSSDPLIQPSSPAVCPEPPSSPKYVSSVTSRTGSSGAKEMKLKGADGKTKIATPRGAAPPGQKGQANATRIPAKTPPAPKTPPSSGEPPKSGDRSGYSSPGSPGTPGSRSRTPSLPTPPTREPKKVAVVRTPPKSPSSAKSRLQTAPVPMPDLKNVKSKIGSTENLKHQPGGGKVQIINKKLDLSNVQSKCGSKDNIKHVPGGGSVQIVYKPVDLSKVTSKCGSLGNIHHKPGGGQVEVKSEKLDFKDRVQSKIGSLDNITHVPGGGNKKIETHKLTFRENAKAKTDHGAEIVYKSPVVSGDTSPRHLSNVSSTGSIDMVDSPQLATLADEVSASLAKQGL
Outline: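 K18 P301L tau (15 uM + 0.24 uM Alexa 594-tagged), heparin 20 uM, NaOAc pH 7, 6 h 37 C; ThT 30 uM, 1 h RT, ex 450/em 510 nm.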
% is scaled to controls: 0 for no effect and ±100 for the full control effect; potency is read from the fitted curve at half-maximal effect; tags tell the direction and shape of the fitted curve.

Row | SMILES | Potency | activity, negative = inhibition
1 | O=C(Nc1ccc2oc(-c3cccnc3)nc2c1)c1ccc(-c2ccc(OC(F)(F)F)cc2)o1 | inconclusive: 2.51 µM [inhibitor, partial curve] | 
2 | COc1ccc(N2CCN(C(=O)CN3C(=O)CSc4c3c(C)nn4-c3ccccc3)CC2)cc1 |  | inactive: -5.69%
3 | Cc1ccc(OCC(=O)Nc2ccc3c(c2)nc(CCNC(=O)c2ccco2)n3C)cc1 |  | inactive: -13.2%
4 | Cc1cc(Oc2ccccc2)nc(N2CCOCC2)n1 |  | inactive: -5.46%
5 | Cc1[nH]n(-c2ncc(-c3ccccc3)s2)c(=O)c1C(c1ccc(Cl)cc1)C(C#N)C#N (stereo unspecified) | active: 14.1 µM | 
6 | O=C(COc1ccccc1)NC(=S)Nc1ccc2c(c1)Cc1ccccc1-2 | inconclusive: 0.891 µM [inhibitor, partial curve] | 
7 | CC(=O)Nc1ccc(NC(=O)C2CCCN2S(=O)(=O)c2ccc3c(c2)CCCC(=O)N3)cc1 (stereo unspecified) |  | inactive: 3.31%
8 | Cc1cccc(NC(=O)CO/N=C/c2ccc3c(c2)OCO3)c1 | inconclusive: 15.8 µM [inhibitor, partial curve] | 
9 | Cc1cc(=O)oc2cc(OCC(=O)N3c4ccccc4CC3C)ccc12 (stereo unspecified) | inconclusive: 39.8 µM [inhibitor, single point] | 
10 | O=C(OCc1csc(-c2ccccc2)n1)c1cccs1 | inconclusive: 17.8 µM [inhibitor, partial curve] | 
11 | Cc1[nH]n(-c2ccccc2)c(=S)c1C=Nc1cccc([N+](=O)[O-])c1 | active: 22.4 µM | 
12 | CC(C)C[C@H](NC(=O)c1nc[nH]c1C(=O)NCCCCCNC(=O)OC(C)(C)C)C(=O)OC(C)(C)C | inconclusive: 35.5 µM [inhibitor, single point] | 
13 | O=C(Nc1ccc(N2CCN(C(=O)c3cccs3)CC2)c(Cl)c1)c1cccnc1 | inconclusive: 12.6 µM [inhibitor, partial curve] | 
14 | COc1cc(/C=C2/SC(=S)N(C)C2=O)ccc1OC(=O)c1ccco1 | inconclusive: 2.51 µM [inhibitor, full curve] | 
15 | O=C(Nc1nnc(S(=O)(=O)N2CCOCC2)s1)c1ccccc1Cl | inconclusive: 3.55 µM [inhibitor, partial curve] | 
16 | Cc1[nH]c2ccccc2c1/C=N/Nc1ccc(F)cc1F | active: 12.6 µM | 
17 | O=C(CSc1n[nH]c(-c2ccccc2)n1)NCCCc1ccccc1 |  | inactive: -2.48%
18 | CC(C)C[C@@H](CC(=O)N[C@H](CC(=O)N[C@@H]1CCCC[C@H]1C(=O)N[C@H](CC(=O)N[C@@H](CCC(=O)O)CC(=O)O)Cc1ccccc1)C(C)C)NC(=O)[C@@H]1CCCC[C@H]1N |  | inactive: -11.5%
19 | COc1cc(Cl)c(C)cc1NC(=O)c1ccc2c(SCC(=O)O)c3c(nc2c1)CCCC3 | inconclusive: 3.98 µM [inhibitor, full curve] | 
20 | CC(c1ccccc1)n1c(Cn2ncc3ccccc3c2=O)n[nH]c1=S (stereo unspecified) |  | inactive: 1.32%
21 | CC(=O)Nc1ccc(S(=O)(=O)Oc2ccc(C(=S)N3CCC(O)CC3)cc2)cc1 |  | inactive: 1.82%
22 | CCCN1CCC(NC(=S)Nc2cccc(Cl)c2Cl)CC1 |  | inactive: 2.6%
23 | COc1cccc(-c2noc(-c3cccnc3)n2)c1 | inconclusive: 39.8 µM [inhibitor, single point] | 

Row | SMILES | Potency | activity, negative = inhibition
24 | Cn1c(N=NC(=O)c2ccccc2)c(O)c2ccccc21 | active: 12.6 µM | 
25 | Cc1[nH]c2ccccc2c1C(C[N+](=O)[O-])c1ccco1 (stereo unspecified) | inconclusive: 12.6 µM [inhibitor, partial curve] | 
26 | CCn1c(=O)c(=O)n(CC)c2cc(N3CCCCC3)c(NC(=O)c3ccc(Cl)cc3)cc21 | inconclusive: 25.1 µM [inhibitor, partial curve] | 
27 | CCN(CC)S(=O)(=O)c1ccc(N/N=C/c2cc(OC)ccc2O)nc1 | inconclusive: 15.8 µM [inhibitor, partial curve] | 
28 | CN1CCc2nc(NC(=O)COc3ccc4ccccc4c3)sc2C1 | inconclusive: 25.1 µM [inhibitor, partial curve, poor fit] | 
29 | CCCCOC(=O)CNc1nnc(SCC(=O)OCC)[nH]c1=O | inconclusive: 12.6 µM [inhibitor, partial curve] | 
30 | CCOC(=O)CCc1c(C)c2ccc(O)cc2oc1=O |  | inactive: -7.69%
31 | CN1CCc2nc3sc(C(=O)NCc4ccccc4)c(N)c3cc2C1 | active: 14.1 µM | 
32 | COCCCNc1nc2cc(OC)c(OC)cc2c2nc(-c3ccccc3)nn12 | inconclusive: 25.1 µM [inhibitor, single point] | 
33 | Cc1ccc(NC(=S)Nc2cccc3cnccc23)cc1C |  | inactive: 6.05%
34 | c1ccn2cc(-c3ccc4c(c3)OCCO4)nc2c1 | inconclusive: 7.08 µM [inhibitor, partial curve] | 
35 | c1ccc(-c2nc(-c3ccncc3)n[nH]2)nc1 |  | inactive: -13.3%
36 | O=C(CSc1ccc(-c2ccco2)nn1)c1cccc([N+](=O)[O-])c1 | inconclusive: 15.8 µM [inhibitor, partial curve, poor fit] | 
37 | CC(C)(C)NC(=O)CSc1nc2ccc(NC(=O)CSc3nnnn3Cc3ccccc3)cc2s1 |  | inactive: -18.5%
38 | O=C(CCN1C(=O)S/C(=C\c2ccccc2)C1=O)Nc1ccc(S(=O)(=O)Nc2nccs2)cc1 | inconclusive: 28.2 µM [inhibitor, partial curve] | 
39 | COC(=O)C1=C(C)Nc2nnnn2C1c1ccco1 (stereo unspecified) |  | inactive: -1.03%
40 | Cc1[nH]c2ccccc2c1/C=N/Nc1ccccn1 | active: 10 µM | 
41 | C=CCNC(=S)N/N=C/c1ccc(C)cc1C | inconclusive: 7.94 µM [inhibitor, partial curve] | 
42 | Nc1c(C(=O)c2cccs2)sc2nsc(SCCN3CCCCC3)c12 | active: 4.47 µM | 
43 | COc1cc(NS(=O)(=O)c2ccc(Nc3nc(-c4cccc([N+](=O)[O-])c4)cs3)cc2)nc(OC)n1 | active: 17.8 µM | 
44 | N#Cc1c2c(c(NCCCN3CCOCC3)n3c1nc1ccccc13)CCC2 | inconclusive: 22.4 µM [inhibitor, partial curve] | 
45 | Nc1nonc1C(=O)N/N=C/c1cc(Br)ccc1O | inconclusive: 8.91 µM [inhibitor, partial curve] | 
46 | O=C(Nc1ccccc1CC[N+](=O)[O-])N1CCN(c2ccccc2)CC1 | inconclusive: 28.2 µM [inhibitor, partial curve] | 
